Assay results as given in paper PMC10516938, “Conformational dynamics of cohesin/Scc2 loading complex are regulated by Smc3 acetylation and ATP binding” (Nature Communications, 2023).
Results are given in words; binding and its absence hold for the method and conditions named. Binding seen in cells or lysates may run through a third protein. Some entries that bind do so weakly or less than the wild type.

Assays:
Smc3-PK (S. cerevisiae) = biological target: T1, Smc3-PK (S. cerevisiae) (UniProt P47037); test: co-IP; Smc3-PK or Smc3^QQ-PK immunoprecipitated with anti-PK from whole-cell extracts of BMOE-treated late G1 arrested cells; Smc1 (anti-MYC) and Scc2 (anti-FLAG) detected
T1 sequence: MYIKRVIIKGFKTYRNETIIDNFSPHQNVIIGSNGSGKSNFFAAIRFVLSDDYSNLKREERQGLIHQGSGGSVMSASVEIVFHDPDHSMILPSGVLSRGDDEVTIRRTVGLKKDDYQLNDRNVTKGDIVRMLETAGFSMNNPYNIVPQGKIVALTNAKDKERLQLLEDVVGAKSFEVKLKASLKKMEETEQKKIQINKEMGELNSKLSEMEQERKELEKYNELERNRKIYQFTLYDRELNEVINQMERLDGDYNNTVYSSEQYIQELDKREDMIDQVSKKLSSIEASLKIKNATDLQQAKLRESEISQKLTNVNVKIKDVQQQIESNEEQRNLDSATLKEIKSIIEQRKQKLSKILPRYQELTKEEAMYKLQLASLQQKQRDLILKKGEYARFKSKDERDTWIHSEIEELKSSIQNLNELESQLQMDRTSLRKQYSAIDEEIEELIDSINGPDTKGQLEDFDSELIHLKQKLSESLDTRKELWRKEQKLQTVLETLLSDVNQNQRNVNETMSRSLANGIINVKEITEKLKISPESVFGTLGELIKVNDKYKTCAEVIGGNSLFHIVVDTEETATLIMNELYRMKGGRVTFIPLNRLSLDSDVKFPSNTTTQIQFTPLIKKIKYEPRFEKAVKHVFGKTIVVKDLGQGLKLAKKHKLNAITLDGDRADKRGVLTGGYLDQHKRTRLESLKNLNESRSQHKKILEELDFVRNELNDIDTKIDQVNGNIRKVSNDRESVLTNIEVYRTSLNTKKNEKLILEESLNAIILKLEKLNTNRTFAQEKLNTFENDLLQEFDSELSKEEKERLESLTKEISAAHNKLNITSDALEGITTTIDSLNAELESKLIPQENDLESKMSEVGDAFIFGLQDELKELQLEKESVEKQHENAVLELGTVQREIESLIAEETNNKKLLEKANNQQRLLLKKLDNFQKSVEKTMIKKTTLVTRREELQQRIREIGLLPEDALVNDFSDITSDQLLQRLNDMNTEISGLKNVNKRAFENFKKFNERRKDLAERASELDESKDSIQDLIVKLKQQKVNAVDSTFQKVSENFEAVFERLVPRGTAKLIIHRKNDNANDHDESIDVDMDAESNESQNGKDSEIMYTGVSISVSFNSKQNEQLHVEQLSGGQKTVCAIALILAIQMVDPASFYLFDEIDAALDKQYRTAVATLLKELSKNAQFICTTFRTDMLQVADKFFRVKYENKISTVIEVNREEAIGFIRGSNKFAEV

[1] = biological target: T2, Smc1 E1102C (S. cerevisiae) (UniProt P32908); test: cross-linking; in vivo BMOE cross-link in late G1 arrested cells with ectopic Smc3-PK or Smc3^QQ-PK; anti-PK immunoprecipitation, blots with anti-MYC (Smc1) and anti-FLAG (Scc2)
T2 sequence: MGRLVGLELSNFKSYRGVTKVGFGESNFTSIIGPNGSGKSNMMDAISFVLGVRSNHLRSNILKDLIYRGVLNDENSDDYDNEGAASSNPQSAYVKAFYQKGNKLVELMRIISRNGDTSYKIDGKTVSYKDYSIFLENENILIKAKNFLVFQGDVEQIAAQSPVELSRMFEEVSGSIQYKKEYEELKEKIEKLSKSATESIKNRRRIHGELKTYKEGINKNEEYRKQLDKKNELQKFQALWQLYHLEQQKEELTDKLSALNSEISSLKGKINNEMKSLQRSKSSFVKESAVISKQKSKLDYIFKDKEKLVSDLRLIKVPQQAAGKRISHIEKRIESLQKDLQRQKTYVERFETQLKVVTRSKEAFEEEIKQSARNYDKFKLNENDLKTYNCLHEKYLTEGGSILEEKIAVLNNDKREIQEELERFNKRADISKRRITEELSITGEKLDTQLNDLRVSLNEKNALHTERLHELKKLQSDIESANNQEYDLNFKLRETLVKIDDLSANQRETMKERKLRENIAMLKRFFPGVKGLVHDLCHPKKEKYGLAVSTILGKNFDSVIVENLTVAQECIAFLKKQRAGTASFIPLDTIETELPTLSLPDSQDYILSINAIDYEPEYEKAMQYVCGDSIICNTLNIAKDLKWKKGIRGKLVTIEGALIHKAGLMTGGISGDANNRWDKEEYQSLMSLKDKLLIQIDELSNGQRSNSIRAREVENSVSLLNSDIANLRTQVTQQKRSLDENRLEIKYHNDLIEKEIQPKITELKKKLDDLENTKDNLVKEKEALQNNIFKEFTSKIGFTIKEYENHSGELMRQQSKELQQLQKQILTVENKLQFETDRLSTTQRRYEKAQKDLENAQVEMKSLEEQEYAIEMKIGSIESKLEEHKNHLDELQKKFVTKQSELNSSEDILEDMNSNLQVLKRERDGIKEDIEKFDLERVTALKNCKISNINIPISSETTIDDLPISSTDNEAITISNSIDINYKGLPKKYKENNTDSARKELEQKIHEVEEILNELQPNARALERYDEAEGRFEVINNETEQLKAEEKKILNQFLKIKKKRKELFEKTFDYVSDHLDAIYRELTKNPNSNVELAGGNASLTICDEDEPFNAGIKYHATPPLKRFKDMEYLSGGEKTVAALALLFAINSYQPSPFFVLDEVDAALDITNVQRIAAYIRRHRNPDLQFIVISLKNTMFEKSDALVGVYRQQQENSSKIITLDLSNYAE

B1: Scc2 T1281C (protein, UniProt Q04002 1-1493)
chain: MSYPGKDKNIPGRIIEALEDLPLSYLVPKDGLAALVNAPMRVSLPFDKTIFTSADDGRDVNINVLGTANSTTSSIKNEAEKERLVFKRPSNFTSSANSVDYVPTNFLEGLSPLAQSVLSTHKGLNDSINIEKKSEIVSRPEAKHKLESVTSNAGNLSFNDNSSNKKTKTSTGVTMTQANLAEQYLNDLKNILDIVGFDQNSAEIGNIEYWLQLPNKKFVLTTNCLTKLQMTIKNITDNPQLSNSIEITWLLRLLDVMVCNIKFSKSSLKMGLDDSMLRYIALLSTIVLFNIFLLGKNDSNLHRESYIMEPVNFLSDLIESLKILTIEYGSLKIEFDTFQEALELLPKYIRNGPFLDDNVTAKLVYIFSDLLMNNDIEATTNIQFQSFWDNVKRISSDILVSLFGSFDQQRGFIIEELLSHIEKLPTKRIQKKLRKVGNQNIYITDFTFTLMSMLENINCYSFCNQMKDIAPENIDLLKNEYKKQEEFLFNIVEHINDTILERFFKNPSALRYVIDNFVQDLLLLISSPQWPVTEKILSSLLKRLLSVYSPSMQVSANIETICLQLIGNIGSTIFDIKCSTRDHEDNNLIKMINYPETLPHFFKSFEECIAYNETIKCRRSATRFLWNLRLGTILILEEYTKDAKEQIITVDNELKKILEQIKDGGLGPELENREADFSTIKLDYFSILHAFELLNLYDPYLKLILSLLAKDKIKLRSTAIKCLSMLASKDKVILSNPMVKETIHRRLNDSSASVKDAILDLVSINSSYFEFYQQINNNYNDDSIMVRKHVLRINEKMYDETNDIVTKVYVIARILMKIEDEEDNIIDMARLILLNRWILKVHEVLDQPEKLKEISSSVLLVMSRVAIMNEKCSQLFDLFLNFYLLNKEAHSKEAYDKITHVLTILTDFLVQKIVELNSDDTNEKNSIVDKQNFLNLLAKFADSTVSFLTKDHITALYPYMVSDEKSDFHYYILQVFRCTFEKLANFKQKFLYDLETTLLSRLPKMNVREIDEAMPLIWSVATHRHDTARVAKACSSCLSHLHPYINKANNEEAAIVVDGKLQRLIYLSTGFARFCFPKPSNDKIAFLQEGETLYEHITKCLLVLSKDKITHVIRRVAVKNLTKLCGNHPKLFNSRHVLHLLDKEFQSDQLDIKLVILESLYDLFLLEERKSVRNTGVNSTLSSNSILKKKLLKTNRVEFANDGVCSALATRFLDNILQLCLLRDLKNSLVAIRLLKLILKFGYTNPSHSIPTVIALFASTSQYIRHVAYELLEDLFEKYECLVFSSLSRGVTKAIHYSIHTDEKYYYKHDHFLSLLEKLCGTGKKNGPKFFKVLKRIMQSYLDDITDLTSTNSSVQKSIFVLCTNISNITFVSQYDLVSLLKTIDLTTDRLKEVIMDEIGDNVSSLSVSEEKLSGIILIQLSLQDLGTYLLHLYGLRDDVLLLDIVEESELKNKQLPAKKPDISKFSAQLENIEQYSSNGKLLTYFRKHVKDT
Smc3-PK (S. cerevisiae)
  binding: binds
[1]
  binding: binds
